The record followed here is paper PMC8118270.

By UniProt entry, the sequences of proteins in these tests, tags left out.
UniProt O18640: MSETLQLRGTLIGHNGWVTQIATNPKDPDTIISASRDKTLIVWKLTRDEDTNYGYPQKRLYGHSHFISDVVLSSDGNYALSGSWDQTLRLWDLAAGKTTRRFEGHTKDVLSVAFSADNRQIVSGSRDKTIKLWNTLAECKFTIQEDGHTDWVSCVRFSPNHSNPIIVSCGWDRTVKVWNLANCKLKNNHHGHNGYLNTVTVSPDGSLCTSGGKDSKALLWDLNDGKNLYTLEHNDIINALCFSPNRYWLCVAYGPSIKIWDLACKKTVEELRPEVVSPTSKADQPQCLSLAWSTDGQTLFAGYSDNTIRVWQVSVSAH
UniProt Q9VL06: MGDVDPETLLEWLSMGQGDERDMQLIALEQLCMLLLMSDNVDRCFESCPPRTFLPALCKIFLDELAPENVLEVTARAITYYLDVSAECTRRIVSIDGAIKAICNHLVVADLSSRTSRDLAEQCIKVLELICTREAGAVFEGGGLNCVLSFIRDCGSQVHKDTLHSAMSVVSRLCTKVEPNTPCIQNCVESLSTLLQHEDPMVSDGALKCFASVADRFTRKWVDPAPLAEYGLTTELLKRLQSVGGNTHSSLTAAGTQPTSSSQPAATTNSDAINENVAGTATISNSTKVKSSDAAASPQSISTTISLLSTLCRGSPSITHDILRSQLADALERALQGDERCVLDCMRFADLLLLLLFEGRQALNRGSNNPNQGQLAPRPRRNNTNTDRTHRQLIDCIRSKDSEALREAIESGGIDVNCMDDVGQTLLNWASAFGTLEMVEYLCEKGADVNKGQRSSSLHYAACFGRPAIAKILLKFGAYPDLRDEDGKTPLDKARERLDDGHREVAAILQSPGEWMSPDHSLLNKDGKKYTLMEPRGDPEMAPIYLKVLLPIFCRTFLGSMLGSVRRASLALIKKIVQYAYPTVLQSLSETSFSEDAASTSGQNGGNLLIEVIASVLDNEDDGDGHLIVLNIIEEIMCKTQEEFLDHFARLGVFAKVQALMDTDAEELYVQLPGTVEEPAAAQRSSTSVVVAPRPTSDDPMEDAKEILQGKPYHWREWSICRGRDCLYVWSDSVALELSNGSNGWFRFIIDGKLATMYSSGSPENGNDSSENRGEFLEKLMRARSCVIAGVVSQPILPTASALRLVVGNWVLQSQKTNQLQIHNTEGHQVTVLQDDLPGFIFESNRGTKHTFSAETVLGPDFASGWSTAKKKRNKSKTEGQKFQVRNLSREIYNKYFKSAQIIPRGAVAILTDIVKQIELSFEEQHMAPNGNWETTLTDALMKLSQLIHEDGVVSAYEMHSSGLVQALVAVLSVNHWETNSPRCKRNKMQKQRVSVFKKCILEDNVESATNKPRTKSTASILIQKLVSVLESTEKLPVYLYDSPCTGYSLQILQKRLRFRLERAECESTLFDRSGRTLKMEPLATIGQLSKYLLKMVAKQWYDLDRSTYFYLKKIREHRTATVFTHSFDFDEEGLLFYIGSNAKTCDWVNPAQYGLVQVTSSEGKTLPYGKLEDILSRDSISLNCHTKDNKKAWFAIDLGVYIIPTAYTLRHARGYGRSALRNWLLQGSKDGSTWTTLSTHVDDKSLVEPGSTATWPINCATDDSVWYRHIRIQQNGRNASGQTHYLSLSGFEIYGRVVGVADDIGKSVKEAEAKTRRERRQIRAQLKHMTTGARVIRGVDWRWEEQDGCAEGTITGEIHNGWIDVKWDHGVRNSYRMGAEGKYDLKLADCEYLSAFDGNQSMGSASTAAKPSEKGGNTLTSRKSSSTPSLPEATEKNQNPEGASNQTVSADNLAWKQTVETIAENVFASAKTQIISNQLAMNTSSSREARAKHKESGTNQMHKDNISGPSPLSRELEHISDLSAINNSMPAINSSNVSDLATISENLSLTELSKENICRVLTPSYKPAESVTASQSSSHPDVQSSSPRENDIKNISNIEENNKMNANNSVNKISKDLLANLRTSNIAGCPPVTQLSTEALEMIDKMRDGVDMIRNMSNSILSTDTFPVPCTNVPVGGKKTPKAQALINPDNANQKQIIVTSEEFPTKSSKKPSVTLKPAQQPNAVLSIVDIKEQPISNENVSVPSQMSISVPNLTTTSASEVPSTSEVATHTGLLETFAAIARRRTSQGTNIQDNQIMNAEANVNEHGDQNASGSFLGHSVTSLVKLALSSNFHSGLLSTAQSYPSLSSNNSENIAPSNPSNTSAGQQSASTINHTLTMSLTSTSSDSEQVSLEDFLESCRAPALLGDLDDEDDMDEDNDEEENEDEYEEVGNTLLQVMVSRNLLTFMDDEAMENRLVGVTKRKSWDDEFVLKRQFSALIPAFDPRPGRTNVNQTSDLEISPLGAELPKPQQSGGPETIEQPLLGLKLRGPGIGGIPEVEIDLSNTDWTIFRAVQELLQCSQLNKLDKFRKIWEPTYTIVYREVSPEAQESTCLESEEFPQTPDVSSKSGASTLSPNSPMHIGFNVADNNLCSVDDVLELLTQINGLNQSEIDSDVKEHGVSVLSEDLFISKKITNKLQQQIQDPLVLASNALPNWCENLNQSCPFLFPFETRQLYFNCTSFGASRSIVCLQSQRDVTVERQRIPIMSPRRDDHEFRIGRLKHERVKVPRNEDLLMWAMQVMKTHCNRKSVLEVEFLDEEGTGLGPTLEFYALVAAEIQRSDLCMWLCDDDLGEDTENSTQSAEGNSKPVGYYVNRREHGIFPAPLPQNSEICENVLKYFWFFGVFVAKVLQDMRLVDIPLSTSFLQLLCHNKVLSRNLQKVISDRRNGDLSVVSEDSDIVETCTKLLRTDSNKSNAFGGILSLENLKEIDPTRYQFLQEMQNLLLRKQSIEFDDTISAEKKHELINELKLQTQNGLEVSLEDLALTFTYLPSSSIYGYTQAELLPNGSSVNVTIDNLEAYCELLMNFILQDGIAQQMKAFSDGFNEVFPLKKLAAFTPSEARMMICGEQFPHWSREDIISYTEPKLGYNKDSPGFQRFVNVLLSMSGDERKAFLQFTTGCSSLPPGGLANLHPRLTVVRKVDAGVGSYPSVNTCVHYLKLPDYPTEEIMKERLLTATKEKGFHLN
UniProt P40417: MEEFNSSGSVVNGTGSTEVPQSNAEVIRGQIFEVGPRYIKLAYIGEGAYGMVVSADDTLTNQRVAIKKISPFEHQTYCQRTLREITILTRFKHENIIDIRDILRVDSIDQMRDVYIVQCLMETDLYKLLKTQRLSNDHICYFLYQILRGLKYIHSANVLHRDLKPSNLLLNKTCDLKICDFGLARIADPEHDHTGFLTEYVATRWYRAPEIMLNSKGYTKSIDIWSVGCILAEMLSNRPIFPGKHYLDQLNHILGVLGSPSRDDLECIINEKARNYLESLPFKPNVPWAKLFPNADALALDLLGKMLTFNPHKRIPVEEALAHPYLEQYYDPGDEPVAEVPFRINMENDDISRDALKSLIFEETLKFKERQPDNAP

Like-named read-outs stand apart in the source and are kept apart here. Results are given in words; binding and its absence hold for the method and conditions named. In cells and extracts the contact can be indirect. Some entries that bind do so weakly or less than the wild type. For some assays here: Sequences can lack the tags named with a protein.

Assay [1] has as its target GFP-tagged RACK1 (Receptor for activated C kinase 1) (Drosophila) (UniProt O18640). As to the kind of experiment: co-IP; S2 cells co-expressing RACK1-GFP (or GFP) with the tagged partner; immunoprecipitation with anti-GFP (GFP beads, Chromotek), western blot against the partner's tag; lysis buffer 10 mM Tris-HCl pH 7.4, 150 mM NaCl, 0.5 mM EDTA, 0.5% NP-40.
Assay [2] has the same target. Described as above. This is another data set of the same source.

As for “Myc-tagged UFD4 (Ubiquitin fusion-degradation 4-like) (from UniProt Q9VL06 1-2727)”, the binding result in assay [1] was “no binding”.

Consider “FLAG-tagged ERK (from UniProt P40417 1-376)”, for which, in assay [1], the binding entry was “binds”.

B1: HA-tagged KCMF1 (Potassium channel modulatory factor 1) (protein, UniProt Q95RX5 1-599)
chain: MSRHEGVSCDSCLKSNFNGRRYKCLICYDYDLCADCYEDGVTSTRHLVEHPMQCILTRSDIELYFGGEMLASDQPQSFTCPYCKKMGFSDATLLEHVSAEHTETSLEVVCPVCAGLPGGEPNLVTDDFAGHLTLEHRQGPRELISFLDEPSAIRHGGGVRRIPGRTLGGPRTRRSNMHFSSSSGLSALSPSGRESVDPIAELLSQLSGVRRGGPPTSQLQQLQMQMQLDRQQVTASRQIDRLPRRAHPIVSTSNSNAAMAEVISGGAGGSGGSGAVGSGSGGGSGATAPPNLRTTEWPVTASFSTSASNHSQTQSSLAANSLNAREAIGTSSSAGSNVLGISVGVGGTANGNGGAGSSGVATGAGGAGQGGGQGGAAAGESFLLAQFMQPTFTEAEWAVVESMRADRSMFVQSLMLSMLCTEALDLNASDESLAKSDNVNKGQQQQQEDAEAEAQAETLLNNNADVEQQQQQQQLQPAMVRQVNQMQQTSPEDFVCDEYRYKNKKANTTQTSGTGGLGGAGATAAPGGGASGAGTKPTADRGIERRSGRPPPGEMATGSQQPQQQQQSTANPAASQQKYKQNASAATAAGNTNQIPDTR
Take B1: the binding result in assay [2] is on record as “no binding”.

B2: 1864–2374 mCherry-tagged POE (domain or fragment, UniProt Q9VLT5 1864-2374)
chain: RIGSNEVRDSAGIGSYLPSHMSLLAGKKRSSLPVGQPVLTRKDSLTNERIAVLTKLLEPYRETLQHQDQWLLVVRCILEYFDLLLPSINENCMLYSIVGCHKRATAALERLHLLEQSFQVTDQLMFATLGSQEGAFENVRMNYSGDQGQTIKHLLSSGVVRRVAFCCLSSPHGRRQQLAVSHEKGKVTILQLSALLKQADASKRKLTLTQLSSAPIACTVISLAANPCNEDCLAVCGLKECHILTFSSSGSTNEHIVVNPQLENGNYIKKAVWLPGSQTLLAVVTSDYVKIYDLAVDTYSPKYYYLVAVGKIRDCTFVYQDGNYNMLTFASSGYIYTQQLDQQSLAVHGDFYVTNTLELSHQHIKDIAGHIGGGGVSIYYSHTLQLLFYSYSCGRSFFSPLTNVSEGVKGIYHLDTNSASKSASKGPLQPLVQWTEVTGHPGLVYASMQTSNNPIILMITPERIYLQEIKAQSAKSRIMDVVGIRHAVAGVEKTTLLLLCEDGSLRIFSAQ
On to B2, for which the binding result in assay [2] is listed as “binds”.

B3: 3377–4492 mCherry-tagged POE (domain or fragment, UniProt Q9VLT5 3377-4492)
chain: RMYRDGHSLDAHFRVVKRVCNIVSSKTGAPYNANPPMLSYDALVELTEHLRTCQEISQMRTGNWQKFCVVHEDALAMLMEIACYQLDDGVSPIIIQLLQAAVCNLPPPSGSKQAQPQPSTSSASGKLRTDREKSEDTDAYYSKFDPAQCGTFVHQIFRYACDALIIRFVRIFLLENNITQLRWQAHSFMTGLFEHANERQREKLLNIFWNLWPLVPTYGRRTAQFVDLLGYLTLSTRSITERLPEFVSRAVDVLRQQNELLCKHPNAPIYTTLESILQVNGYYLESEPCLVCNNPEVPMANIKLPSVKSDSKYTTTTMIYKLVQCHTISKLIVRIADLKRTKMVRTINVYYNNRSVQAVVELKNRPALWHKARSVSLQSAQTELKIDFPLPITACNLMIEFADFFETVSGSSENLQCPRCSAAVPAYPGVCGNCGENVFQCHKCRAINYDEKDPFLCHSCGFCKYAKFDFSMYARVCCAVDPIESAEDRVKTVSLIHSSLERADRNYRQLLTNKQMLELLIQKVAEHRSSDRMVEDNMASVHSTSQVNKIIQLLAQKYCVESRTSFEELSKIVQKVKACRSELVAYDRQQQDQPPVNPGSTTGAENPTTNRCYGCALASTEQCLTLLRAMAYNYDCRVCLYSQGLVSELAEHNLRRGTPLIQEEVRNLLVVLTKDNAEACMHLLQLVTTRVKNALMGSIPLISLEAAVHQEMTLLEVLLGQDDICWEYKLKVIFELFISNCRLPRGPVTAVLHPCLRIMQNLICPVLPGSKPNQKVATTDLCSMKMFEGNTVDYRAWLNSDRNHEYAAWSKRMPSNNQAKLKNAKDQNVAASGGSDAPPKSRREVRVAFLSEKYGKRWRERVLDKQRVIKPLVFNAKWIQPLLFNANSRFGRQLACSLLSSLSRTNERRQQALNMLTSFLKHVGEAGEASAEYLMLYKNMATEQPWLQYLVLKGVLSQISQLLAIEISKVHRMEEYSLSSDLSLGYALRQYVELLWLLLECPNIRRTYKTRMLGPVLESYLALRSLVVQRTRLIDDAQEKLLEMLEDMTSGTEEETRAFMEILIDTVEKTRMNDIKTPVFVFERLYSIIHPEEHDESEFYMTLEKDPQQEDFLQGR
Take B3: in assay [2], the binding entry is “binds”.
